Measured values from article PMC4336329 (PLoS ONE, 2015).
Screen size: about 310,000 compounds; about 14,000 (4.5%) showed an effect of 50% or more. The effect is printed as a negative number. The list shows a part of the results.

Target: human ether-à-go-go-related gene (hERG) potassium channel (human, UniProt Q12809)
Assay: primary screen, population patch clamp on CHO cells stably expressing hERG
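Note: peak tail current of the secondary pulse compared with the same well before compound.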

Sequence of human ether-à-go-go-related gene (hERG) potassium channel (Q12809 whole entry, looked up): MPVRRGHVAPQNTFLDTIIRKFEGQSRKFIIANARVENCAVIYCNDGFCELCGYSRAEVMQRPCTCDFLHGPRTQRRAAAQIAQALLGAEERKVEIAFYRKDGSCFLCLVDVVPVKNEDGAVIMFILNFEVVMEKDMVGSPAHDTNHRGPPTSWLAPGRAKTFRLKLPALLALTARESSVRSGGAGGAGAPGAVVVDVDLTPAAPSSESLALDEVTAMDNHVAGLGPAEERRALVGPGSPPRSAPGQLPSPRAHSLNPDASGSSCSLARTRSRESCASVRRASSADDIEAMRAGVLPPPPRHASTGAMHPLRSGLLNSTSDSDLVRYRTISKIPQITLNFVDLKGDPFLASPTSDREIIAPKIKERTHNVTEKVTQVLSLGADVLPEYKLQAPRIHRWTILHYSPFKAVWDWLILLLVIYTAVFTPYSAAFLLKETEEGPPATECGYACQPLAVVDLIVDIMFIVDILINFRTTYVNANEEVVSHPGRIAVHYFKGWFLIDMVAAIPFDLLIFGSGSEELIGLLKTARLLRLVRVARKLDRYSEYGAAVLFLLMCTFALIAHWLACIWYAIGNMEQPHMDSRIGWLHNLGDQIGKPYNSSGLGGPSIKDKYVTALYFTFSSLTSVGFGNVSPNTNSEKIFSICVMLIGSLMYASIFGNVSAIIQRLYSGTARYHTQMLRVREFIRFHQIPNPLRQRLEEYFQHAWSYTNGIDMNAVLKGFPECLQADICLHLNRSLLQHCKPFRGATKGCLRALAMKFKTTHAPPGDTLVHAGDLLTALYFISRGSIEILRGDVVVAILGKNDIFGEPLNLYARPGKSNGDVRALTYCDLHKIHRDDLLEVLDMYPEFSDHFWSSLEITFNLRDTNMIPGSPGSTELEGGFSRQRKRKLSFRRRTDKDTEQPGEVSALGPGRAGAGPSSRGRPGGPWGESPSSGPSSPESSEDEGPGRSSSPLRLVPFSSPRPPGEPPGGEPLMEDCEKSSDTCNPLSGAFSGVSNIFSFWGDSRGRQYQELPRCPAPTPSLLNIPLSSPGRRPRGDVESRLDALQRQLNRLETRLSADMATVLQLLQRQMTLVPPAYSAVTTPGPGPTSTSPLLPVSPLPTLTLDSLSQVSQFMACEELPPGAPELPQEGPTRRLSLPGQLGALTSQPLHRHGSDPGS

Compound | hERG current change (%, negative = inhibition) at 10uM [%]
C/C(CC(=O)Nc1ccc(OCc2ccccc2)cc1)=N\NC(=O)C(=O)Nc1ccc(C)c(Cl)c1 | 12.9
Cc1ccccc1NCc1nnc2n1CCCCC2 | 13.7
CCCc1cc(C(N)=O)c(NC(=O)c2ccoc2C)s1 | -9.27
Cc1nc2nc(C)c(CCC(=O)N3CCc4ccccc43)c(C)n2n1 | -63.5
C/C(CC(=O)Nc1ccc2c(c1)OCCO2)=N\NC(=O)COc1ccc(C)cc1Br | -36.9
COc1ccc(C(=O)CCNc2cccc(Cl)c2)cc1 | 3.99
CCCN(C1CCS(=O)(=O)C1)S(=O)(=O)c1cc(OC)ccc1OC (stereo not drawn) | -2.94
CN(C)c1ccc(C(=O)N(Cc2ccccc2)Cc2ccccc2)cc1 | 9.53
COc1cc(C(=O)N/C(=C\c2cn(C)c3ccccc23)C(=O)NCCCO)cc(OC)c1OC | 23.4
CC(C)(C)C(=O)Nc1nnc(SCC(=O)Nc2nccs2)s1 | 16.2
COC1OC(COC(=O)CNC(=O)OC(C)(C)C)C(O)C(O)C1O (stereo not drawn) | 5.13
Cc1cc(Cl)ccc1NC(=S)NCc1ccc(Cl)cc1 | 6.89
COc1ccccc1CNC(=O)CN(CCc1ccccc1)S(C)(=O)=O | -18.3
COc1ccc(-c2[nH]nc3c2C(c2ccncc2)C(C#N)=C(N)O3)cc1 (stereo not drawn) | 15.6
COc1ccc(C(C(C(=O)c2ccco2)N2CCOCC2)N2CCOCC2)cc1 (stereo not drawn) | 0.33
COc1ccc(N2CCN(S(=O)(=O)c3ccc4c(c3)NC(=O)CC(=O)N4)CC2)cc1 | 13.2
O=C(NCc1cccnc1)[C@@H]1CC=C[C@@H]2CCN(Cc3ccc(Cl)c(Cl)c3)C(=O)[C@@H]21 | -34.6
Cc1ccc(NC(=O)/C=C/C(=O)O)c([N+](=O)[O-])c1 | -67
CCOc1cc(NC(=S)Nc2ccccc2)c(OCC)cc1NC(=O)c1ccc(OC)cc1 | 11.1
Cc1c(C(=O)NCCCN2CCCC2=O)oc2c(Cl)cccc12 | -3.64
O=C(NC1(C(F)(F)F)NC(=O)N(Cc2ccccc2)C1=O)c1cccs1 (stereo not drawn) | 0.00138
Nc1nc(NCCCN2CCOCC2)nc(Nc2cccc(Cl)c2)c1[N+](=O)[O-] | -40

Compound | hERG current change (%, negative = inhibition) at 10uM [%]
C=CCc1cccc(/C=N/n2c(C)nnc2C)c1O | 15.7
CSc1cccc(Nc2ccc(S(=O)(=O)N3CCOCC3)cc2[N+](=O)[O-])c1 | -30.8
CC(=O)c1sc(NC(=O)C2CC(=O)N(Cc3ccco3)C2)nc1-c1ccccc1 (stereo not drawn) | -59.4
CCCc1nc2sc3c(c2c(=O)n1NC(=O)CCCl)CCCC3 | 0.756
CC(=O)NC1C(OCc2cccc(Br)c2)OC(COC(C)=O)C(OC(C)=O)C1OC(C)=O (stereo not drawn) | -12.4
COc1ccccc1NC(=O)c1ccccc1NS(C)(=O)=O | -1.12
O=C(Nc1ccc(Cl)cc1-c1nc2ccccc2s1)c1ccco1 | 17.6
Cc1ccc(C(=O)CCC(=O)N2CCC(C(N)=O)CC2)s1 | 20.5
COc1cccc(-c2nnc(SCC(=O)N(C(C)C)C(C)C)o2)c1 | 9.35
Cc1nn(-c2ccccc2)c2c1C(c1ccco1)C(C#N)=C(N)O2 (stereo not drawn) | 6.04
Cc1ccc(CNS(=O)(=O)CCNC(=O)c2ccccc2)cc1 | -33.5
O=C(CSc1nc2c(sc3ccccc32)c(=O)n1CCCN1CCCC1)NCC1CCCO1 (stereo not drawn) | -61.6
Cn1cccc1Cc1nnc(SCC(=O)N2CCN(c3ccccc3)CC2)n1-c1ccc(F)cc1 | -0.751
O=C(Nc1ccc2c(c1)OCO2)c1cccs1 | 20.1
O=C(/C=C/c1ccc(Cl)cc1Cl)OCC(=O)N1CCCC1 | -17.3
CC(=O)Oc1c(C(C)C)cc(N(C(C)=O)c2ccccc2)cc1C(C)C | 2.98
Cc1noc(C)c1-c1nc(CS(=O)(=O)c2ccc(Cl)cc2)no1 | -3.59
Cn1c(SCC(=O)NNC(=O)Nc2ccc(Cl)cc2)nnc1-c1ccccc1 | 7.36
CCOC(=O)Cn1cnc2c(nnn2-c2cccc(OC)c2)c1=O | 9.76
COc1ccc(C(=O)NNS(=O)(=O)c2ccc(C)cc2)cc1 | -9.83
Cc1cc(C)nc(NS(=O)(=O)c2ccc(N=Cc3c(O)n(C)c(=O)n(C)c3=O)cc2)n1 | 11.4
Cc1cc(NC(=O)CSc2nnc(-c3cccnc3)n2Cc2ccccc2)no1 | 10.8

Compound | hERG current change (%, negative = inhibition) at 10uM [%]
O=S1(=O)CCOC[C@H](CC2CCCCC2)N1Cc1ccc(Cl)cc1 | 7.51
O=C(O)CSc1ccc(Oc2ccc(SCC(=O)O)cc2)cc1 | 8.02
COc1ccc([N+](=O)[O-])cc1N(CC(O)CN1CCCC1)S(=O)(=O)c1ccc(C)cc1 (stereo not drawn) | -2.85
CC1CCN(C(=O)COC(=O)C(C)N2C(=O)c3ccccc3C2=O)CC1 (stereo not drawn) | -3.43
O=C1c2ccccc2C(Nc2cccnc2)N1Cc1ccccc1Cl (stereo not drawn) | -38.8
COC(=O)[C@H](CCSC)NC(=O)Nc1ccc(S(N)(=O)=O)cc1 | 5.25
CN1CCN(c2ccc(S(=O)(=O)N3CCOCC3)cc2NC(=O)COc2ccc(F)cc2Cl)CC1 | -61.5
NC(=O)COC(=O)c1cc([N+](=O)[O-])ccc1NCCO | 3.83
O=C(CN1CCOCC1)NNC(=S)Nc1ccccc1 | -29.9
O=C(COC(=O)C1=NN(c2ccccc2)C(=O)CC1)Nc1ccc([N+](=O)[O-])cc1C(F)(F)F | 5.08
O=[N+]([O-])c1ccc(NCCNS(=O)(=O)c2ccccc2)c(C(F)(F)F)c1 | -16.3
C=C(C)Cn1c(Sc2nc3ccccc3[nH]2)nc2c1c(=O)[nH]c(=O)n2C | -18.2
CC(C)c1nnc(NC(=O)C2CCN(C(=O)Nc3ccccc3)CC2)s1 | -1.35
CCn1c(=O)c(=O)[nH]c2cc(C(=O)NCC3CCCCC3)ccc21 | -13.9
CCOCCCNC(=O)c1ccc2c(c1)ncn2-c1ccccc1OC | -4.39
O=C(CSc1nnc(-c2cccc(S(=O)(=O)N3CCOCC3)c2)n1C1CCCCCC1)NCc1ccccc1 | -17.5
CN1CCCC(C(=O)c2ccccc2)C1.O=C(O)/C=C/C(=O)O (stereo not drawn) | 10.6
O=C(Nc1ccc(N2CCOCC2)cc1)c1cnccn1 | 28
CS(=O)(=O)N1CCc2cc(C(=O)NC3CC3)ccc21 | 17
Cc1ccc(NC(=O)CSc2ccccn2)cc1S(=O)(=O)N1CCOCC1 | 0.975
C#CCOCCOCCOCCNc1nc(N2CCOCC2)nc(N2CCN(C(=O)[C@H]([C@@H](C)CC)n3cc([C@@H](N)CO)nn3)CC2)n1.Cl | 2.8
CCOC(=O)C1=C(CCl)NC(=O)NC1c1ccc2c(c1)OCO2 (stereo not drawn) | -2.64

Compound | hERG current change (%, negative = inhibition) at 10uM [%]
O=C(Nc1ccc(-n2cnnn2)cc1)C1CCCN1C(=O)NC1CCCCC1 (stereo not drawn) | -63.3
C=CCn1c(O)c(/C=C/C=Nc2ccccc2)c(=O)[nH]c1=O | 24.8
COc1ccc(N2CC(C(=O)Nc3nnc(SCC(=O)c4ccccc4)s3)CC2=O)cc1 (stereo not drawn) | 19.5
CCN(CC)c1nc(-c2ccccn2)nc(-c2ccccc2)c1C#N | -20.4
CCOC(=O)c1c(C)sc2c1N(C(=O)CN1CCOCC1)c1cc(Cl)ccc1S2 | -21.5
Cc1ccc(NC(=O)CSc2ncc(S(=O)(=O)c3ccccc3)c(=O)[nH]2)cc1C | -8.72
C/C(=N\NC(=O)C1(C)CC1(Br)Br)c1cccc(NC(=O)C(C)(C)C)c1 (stereo not drawn) | 0.384
COc1ccc(C2=NOC(C(=O)NCc3cccnc3)C2)cc1OC (stereo not drawn) | 14
O=C(Cn1c(=O)c2cccn2c2ccccc21)NCCc1ccccc1 | 16.5
Cc1nc(=O)cc(-c2ccccc2)n1-c1ccccc1 | 11.4
C(=N\c1nc2ccccc2[nH]1)/c1cccs1 | 9.96
O=C(CSc1ncnc2nc[nH]c12)c1ccc([N+](=O)[O-])cc1 | 18.6
CCCCn1c(C)c(C(=O)O)c2cc(OC)c3ccccc3c21 | 15.6
COc1cc2ccc3c(CCN(C)C)cc(OC)c(OC)c3c2cc1OC.Cl | -44.5
COc1ccc(C2/C(=C(\O)c3cc(C)ccc3C)C(=O)C(=O)N2CCN(C)C)cc1OC (stereo not drawn) | -2.4
Cc1ccc(CNC(=O)CCc2c(C)nc3c(c(C)nn3-c3ccc(C)cc3)c2C)cc1 | 10.1
Cn1ccsc1=NC(=O)c1ccccc1OC(F)F | 20.2
Cc1cc(C)c2c(N=NN(C)C)[nH]nc2n1 | -21.8
Cc1nnc(SCC(C)C)[nH]c1=O | 15.1
O=C(NCC(F)(F)F)Nc1cccnc1 | 9.93
O=C(O)C1(S(=O)(=O)c2ccc(Cl)cc2)CCC1 | 35.3
